Assay results reported in PubChem BioAssay AID1345082 (National Center for Advancing Translational Sciences (NCATS), 2018).
Where “and” joins values, the source holds several entries; their conditions need not be identical. Equal values may be shown once. Screen size: about 94,000 compounds; about 4,000 (4.3%) were called active. Inconclusive means that the source gave no clear call. Such entries were picked first, then a sample of the others. Calls follow the shape of the dose curve; as a rule, active = well fitted inhibition curve with a large enough effect; inconclusive = small, poorly fitted or top-dose-only effect; inactive = no such curve, though single readings can be large or run the other way. Where the call is inconclusive, the potency comes from a doubtful curve fit.

Test: Cytotoxic Profiling in NIH 3T3 Cell Line of Diverse Libraries Using Quantitative High-Throughput Screening; also: nearly all actives have a fitted effect of over 55% in size
Conditions: NIH 3T3 viability, CellTiter-Glo ATP luminescence, 48-72 h; activity change, negative = cytotoxicity: at 96.7 µM (top of the series) unless noted; series mostly up to 96.7 µM
Procedure, shortened: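 Mouse fibroblast NIH 3T3 cells, 400 per well, received compound via pintool and were incubated for 48 or 72 hr prior to CellTiter-Glo ATP luminescence measurement.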
% is scaled to controls: 0 for no effect and ±100 for the full control effect; potency is read from the fitted curve at half-maximal effect; tags tell the direction and shape of the fitted curve.

SMILES	activity change, negative = cytotoxicity	Potency
O=C1CCC[C@H]2C3CC(CN(c4nc5ccccc5s4)C3)CN12 (some centres not stated)	inactive: -10.8%	
CC(C)(C)c1ccc(NC(=O)O[C@@H]2CO[C@H]3[C@@H]2OC[C@@H]3Nc2nccc(-c3ccc(-c4ccccc4)cc3)n2)cc1		active: 39.8 µM
CCOc1ccccc1CN1CCN(c2cc(C)nc(N)n2)CC1CCO (configuration not stated)		inconclusive: 50.1 µM [inhibitor, partial curve, poor fit]
COCCC(=O)N1CCCC(n2c(C)cnc2C2CC2)C1 (configuration not stated)	inactive: -1.22%	
CNC(=O)Nc1cccn2nc(-c3ccccc3)nc12		inconclusive: 10 µM [inhibitor, full curve, poor fit]
Cc1ccc(C)c(OCC(=O)c2ccc3c(c2)N(CC(=O)NCC2CC2)C(=O)CO3)c1	inactive: -29.4%	
O=C(NC1CCN(c2cc(-c3cccs3)[nH]n2)CC1)c1cc(F)ccc1Cl		inconclusive: 35.5 µM [inhibitor, partial curve]
Cc1cccc(NC(=O)N2CCCC2c2noc(COc3ccc(F)cc3)n2)c1 (configuration not stated)		inconclusive: 44.7 µM [inhibitor, partial curve, poor fit]
O=C(c1ccccc1)N1CCc2sc(C(=O)N3CCN(c4ccccc4)CC3)cc2C1		inconclusive: 44.7 µM [inhibitor, partial curve, poor fit]
CC(C)Cn1c(=O)c(C(=O)NCC(F)(F)F)nc2cccnc21	inactive: -3.11%	
CC(=O)N1CCN(C(=O)c2nc3cccnc3n(CC(C)C)c2=O)CC1	inactive: -5.15%	
Cc1ccc(C(=O)N2CCC(c3nn(-c4ccc(F)cc4)c(=O)[nH]3)CC2)cc1		inconclusive: 39.8 µM [inhibitor, partial curve, poor fit]
NCC(=O)N1Cc2ccccc2CC2(CCCCN2CC2CCCC2)C1 (configuration not stated)		inconclusive: 70.8 µM [inhibitor, single point]
CC1Oc2ccc(NC(=O)c3ccc([N+](=O)[O-])cc3)cc2CN(Cc2ccccc2)C1=O (configuration not stated)		inconclusive: 22.4 µM [inhibitor, full curve]
COc1ccccc1-c1cc(C(=O)NCc2ccnc(N)c2)c2c(c1)ncn2C		inconclusive: 22.4 µM [inhibitor, full curve, poor fit]
COc1cccc(C(=O)N2CCC(C(=O)N3CCC(c4nc5ncccc5[nH]4)CC3)CC2)c1	inactive: -4.97%	
CCCNC(=O)N1CC(Oc2ccc(-c3nc(-c4ccccc4)no3)cc2)C1	inactive: -41.1%	
Fc1ccc(Cc2nc3nccc(-c4ccsc4)n3n2)cc1		inconclusive: 50.1 µM [inhibitor, partial curve, poor fit]
COCC(=O)N1CCC(N2C(=O)c3c(c(C)nn3-c3ccccc3)C2C)CC1 (configuration not stated)		inconclusive: 70.8 µM [inhibitor, single point] and active: 28.2 µM
O=C(COc1ccc(F)cc1)N1CCC(n2cc(-c3nc(-c4ccccc4)no3)nn2)C1 (configuration not stated)		inconclusive: 44.7 µM [inhibitor, partial curve, poor fit]
O=C(NCc1ccc(Cl)cc1)c1ccc2nc(-c3ccnc(Cl)c3)oc2c1		inconclusive: 25.1 µM [inhibitor, partial curve, poor fit]

SMILES	activity change, negative = cytotoxicity	Potency
CC(Cn1cccn1)Nc1ccc(-c2nc(-c3ccccc3F)no2)cn1 (configuration not stated)		inconclusive: 79.4 µM [inhibitor, partial curve, poor fit]
COc1ccc(CNC[C@H]2O[C@H](Cc3cc(-c4cccc(O)c4)on3)CC[C@@H]2O)cc1		inconclusive: 112 µM [inhibitor, single point]
CN1CCN(c2ccc(-c3noc([C@@H]4CCCN4C4CCCCC4)n3)cn2)CC1		active: 79.4 µM
COCCCn1c(=O)c(C(=O)N2CCN(C(=O)c3ccc(OC)cc3)CC2)nc2cccnc21	inactive: -18%	
Cc1ccc(NC(=O)N2CCCC(N3C(=O)c4c(c(C)nn4-c4ccccc4)C3C)C2)cc1F (configuration not stated)		inconclusive: 39.8 µM [inhibitor, partial curve]
CC(=O)Nc1ccc(CN2CCN3C(=O)N(Cc4ccccc4)C[C@H]3C2)cc1		inconclusive: 126 µM [inhibitor, single point]
O=C1[C@@H]2C[C@@H](CN2C2CCOCC2)Oc2ccccc2N1Cc1ccc(OC(F)(F)F)cc1		inconclusive: 50.1 µM [inhibitor, partial curve, poor fit]
O=C(Cc1c[nH]c2ncc(-c3ccccc3)cc12)Nc1ccc(N2CCOCC2)cc1		active: 25.1 µM
COc1ccc(C(=O)Nc2cc(C3CCCC3)nn2C)cc1		inconclusive: 112 µM [inhibitor, single point]
Cn1ncc2c(C(=O)NCc3cccc(Cl)c3)cc(-c3ccccc3F)nc21		inconclusive: 8.91 µM [inhibitor, full curve, poor fit]
O=C(NCc1ccc2c(c1)OCO2)c1cnc2c(c1)N([S+](=O)([O-])c1cccnc1)CCC2		inconclusive: 50.1 µM [inhibitor, partial curve, poor fit]
CC(=O)N1CCC(N2C[C@@H]3OCC(=O)N(CC(N)=O)[C@@H]3C2)CC1		inconclusive: 126 µM [inhibitor, single point]
O=C1Cc2c(-c3ccccc3)n[nH]c2CN1CCc1ccncc1		inconclusive: 89.1 µM [inhibitor, partial curve, poor fit]
CNC(=O)N1CCC(C2CCN(C(=O)c3cc(OC)cc(OC)c3)C2)CC1 (configuration not stated)	inactive: -11.9%	
COC(=O)N(C)Cc1cccc(N2CCN(Cc3c(Cl)ccc(Cl)c3Cl)CC2)c1F	inactive: -32.1%	
O=C(NCc1ccc(F)cc1)C1CCN(c2nccc(Nc3ccccc3Cl)n2)CC1		inconclusive: 44.7 µM [inhibitor, partial curve, poor fit]
Cn1cccc1C(=O)N1CCC(N2C[C@H](O)C[C@H]2C(=O)NC2CCCCC2)CC1	inactive: -8.52%	
CCOc1ccc(C(=O)N2CCC3(CC2)N=C(c2ccc(Cl)cc2)NO3)cc1	inactive: 0.728%	
O=C(NCc1cccnc1)c1ccc(N2CCC(NCCCn3ncc4ccccc43)CC2)cc1		active: 17.8 µM
Cc1nnc2ccc(N3CCN(C(=O)c4ccccc4Cl)CC3)nn12		inconclusive: 39.8 µM [inhibitor, partial curve, poor fit]
CCn1ncc(N2CCCC(CC(=O)N3CCN(Cc4ccccc4)CC3)C2)cc1=O (configuration not stated)	inactive: -20.1%	

SMILES	activity change, negative = cytotoxicity	Potency
Cc1ccc([S+](=O)([O-])N2CCC3(CC2)CC(=O)N(c2ccccc2)c2ccccc2O3)cc1		inconclusive: 20 µM [inhibitor, full curve, poor fit]
CN1CCN(C(=O)C2CCN(c3ccnc4ccnn34)CC2)CC1		inconclusive: 44.7 µM [inhibitor, partial curve, poor fit]
Cc1ccccc1[S+](=O)([O-])N1CC2(CN(CCOc3ccccc3)C(=O)O2)C1		inconclusive: 89.1 µM [inhibitor, partial curve, poor fit]
c1ncc(-c2ccc(-c3noc([C@@H]4CCCN4Cc4ccc5c(c4)OCO5)n3)cn2)cn1	inactive: -35.3% [at 138 µM]	
COc1ccc(-c2noc(CCCC(=O)N3CCC(c4nc(C5CCOCC5)no4)C3)n2)cc1OC (configuration not stated)		inconclusive: 8.91 µM [inhibitor, partial curve, poor fit]
Cc1ccc(-c2nc(C3CC(=O)N(c4ccc(F)cc4)C3)no2)cc1C (configuration not stated)		inconclusive: 44.7 µM [inhibitor, partial curve, poor fit]
O=C(c1ncccn1)N1CCNc2cnc(Nc3ccc(-n4ccnc4)cc3)nc2C1		inconclusive: 25.1 µM [inhibitor, full curve, poor fit]
O=C(NC[C@H]1Cn2c(-c3ccc(F)cc3)cnc2CO1)c1cnccn1		inconclusive: 63.1 µM [inhibitor, full curve, poor fit]
Cc1cc(C)n(-c2cccc(-c3nc(C4CCOC4)no3)c2)n1 (configuration not stated)		inconclusive: 44.7 µM [inhibitor, partial curve, poor fit]
O=C(NCc1ccc(F)cc1F)c1cc2n(n1)CC(c1ccc(Cl)cc1)OC2 (configuration not stated)		inconclusive: 50.1 µM [inhibitor, partial curve, poor fit]
COc1ccc(-c2cc(C(=O)N3CCN(c4ncccn4)CC3)c3cnn(C)c3n2)cc1		inconclusive: 50.1 µM [inhibitor, partial curve, poor fit]
COc1ccc(CC(=O)N2CC[C@@H](CC(=O)O)[C@@H](CCN(CCN3CCOCC3)c3ccccc3)C2)cc1		inconclusive: 70.8 µM [inhibitor, single point]
O=C(c1cncc(F)c1)N1CCOCC2(CN(Cc3ccccc3)C2)C1		inconclusive: 112 µM [inhibitor, single point]
Cn1nccc1C(=O)NCC1Cn2cccc2CN1Cc1ccccc1 (configuration not stated)		inconclusive: 50.1 µM [inhibitor, partial curve, poor fit]
COC(=O)C(=O)N[C@H]1C[C@@H](Cc2cc(-c3ccc(OC)cc3)on2)C1(C)C	inactive: -20.9% [at 138 µM]	
C[S+](=O)([O-])c1ccc(-c2nnc3ccc(C(=O)NCc4ccccn4)cn23)cc1	inactive: -3.44%	
O=C(Nc1ccc(Cl)cc1)N1Cc2[nH]cnc2C[C@H]1c1nc(-c2ccccc2)no1		active: 31.6 µM
CN(C)CCCC(=O)N1CCC(n2c(=O)[nH]c3ccccc32)CC1	inactive: 2.73% [at 138 µM]	
Clc1cc(NC2CCOCC2)n2nccc2n1		inconclusive: 89.1 µM [inhibitor, partial curve, poor fit]
O=C(c1ccc(F)cc1)N1CCc2nc(C3CC3)nc(-c3ccc(Cl)cc3)c2C1		inconclusive: 50.1 µM [inhibitor, partial curve, poor fit]
